From the antibiotic and cytotoxicity screens of Wong et al. (2023)
The other results are listed elsewhere or left out.

What follows are compounds tested on HepG2 (assay: cytotoxicity call (relative viability < 0.9)). Conditions: 10 µM.
In the case of `C[C@@H]1CN([C@H](C)CO)C(=O)c2cc(NC(=O)C3CC3)ccc2O[C@H]1CN(C)Cc1ccc(Oc2ccccc2)cc1`, the cytotoxicity call is reported as “inactive”.
`Cc1cc(-n2c(=O)[nH]c(=O)n(C)c2=O)ccc1Oc1ccc(SC(F)(F)F)cc1` was tested, and the cytotoxicity call was “inactive”.
For `C[C@@H]1CCCCO[C@H](CN(C)C(=O)Nc2cccc3ccccc23)[C@@H](C)CN([C@H](C)CO)C(=O)c2cc(NS(=O)(=O)c3cccs3)ccc2O1`, the cytotoxicity call was “inactive”.
With `Cc1noc(C)c1NC(=O)N(C)C[C@H]1Oc2ccc(NC(=O)CCCN(C)C)cc2C(=O)N([C@@H](C)CO)C[C@@H]1C` the cytotoxicity call was “inactive”.
With `C[C@H](CO)N1C[C@H](C)[C@@H](CN(C)S(=O)(=O)c2ccc(F)cc2)Oc2c(NS(C)(=O)=O)cccc2C1=O` the cytotoxicity call was “inactive”.
`COCC(=O)Nc1ccc2c(c1)OC[C@H](C)N(C(=O)Cc1ccccn1)C[C@H](C)[C@H](OC)CN(C)C2=O` was tested, and the cytotoxicity call was “inactive”.
In the case of `CCS(=O)(=O)NCC[C@H]1CC[C@H](NC(=O)C2CCOCC2)[C@@H](CO)O1`, the cytotoxicity call is reported as “inactive”.
For `C=CCC1C=C(C)CC(C)CC(OC)C2OC(O)(C(=O)C(=O)N3CCCCC3C(=O)OC(C(C)=CC3CCC(O)C(OC)C3)C(C)C(O)CC1=O)C(C)CC2OC` (stereo not given), the cytotoxicity call was “inactive”.

Each compound was assayed on S. aureus RN4220 (assay: growth inhibition call (relative growth <= 0.2)). Conditions: 50 µM.
In the case of `COCC(=O)Nc1ccc2c(c1)OC[C@@H](C)N(Cc1ccccc1F)C[C@H](C)[C@@H](OC)CN(C)C2=O`, the growth inhibition call is reported as “inactive”.
For `O=C(NO)c1cccc(C(=O)N/N=C/[C@H](O)[C@@H](O)[C@@H](O)[C@H](O)C(=O)O)c1`, the growth inhibition call was “inactive”.
`C[C@H](CO)N1C[C@H](C)[C@H](CN(C)Cc2ccc(Oc3ccccc3)cc2)Oc2ccc(NC(=O)Cc3cn(C)c4ccccc34)cc2CC1=O` was tested, and the growth inhibition call was “inactive”.
For `O=C(O)Cn1c(=O)oc2ccccc21`, the growth inhibition call was “inactive”.
`O=C(O)/C=C(\CC(=O)O)C(=O)O` was tested, and the growth inhibition call was “inactive”.
With `COc1ccccc1-c1ccc2c(c1)O[C@@H](CN(C)C(=O)c1ccncc1)[C@H](C)CN([C@H](C)CO)S2(=O)=O` the growth inhibition call was “inactive”.
In the case of `C[C@H]1CN([C@@H](C)CO)C(=O)c2cc(Br)cnc2O[C@@H]1CN(C)S(=O)(=O)c1cn(C)cn1`, the growth inhibition call is reported as “inactive”.
With `CO[C@H]1CN(C)C(=O)c2ccc(NS(C)(=O)=O)cc2OC[C@H](C)N(C(=O)C2CCOCC2)C[C@@H]1C` the growth inhibition call was “inactive”.
With `CNC[C@@H]1Oc2ccc(NS(=O)(=O)c3cn(C)cn3)cc2CC(=O)N([C@H](C)CO)C[C@H]1C` the growth inhibition call was “inactive”.
With `Cc1ccc(S(=O)(=O)N(C)C[C@H]2Oc3ccc(NC(=O)Nc4ccc(C(F)(F)F)cc4)cc3C(=O)N([C@@H](C)CO)C[C@@H]2C)cc1` the growth inhibition call was “inactive”.
With `C[C@@H]1CN([C@H](C)CO)C(=O)c2cccc(NS(C)(=O)=O)c2O[C@H]1CN(C)Cc1ccc(C(F)(F)F)cc1` the growth inhibition call was “inactive”.
`CC[N+](CC)(CC)CCOc1cccc(OCC[N+](CC)(CC)CC)c1OCC[N+](CC)(CC)CC.[I-].[I-].[I-]` was tested, and the growth inhibition call was “inactive”.
With `COc1ccc(NC(=O)Nc2cccc3c2O[C@@H](CN(C)Cc2ccc(-c4ccccc4)cc2)[C@@H](C)CN([C@H](C)CO)C3=O)cc1` the growth inhibition call was “inactive”.
`C[C@H](CO)N1C[C@H](C)[C@H](CN(C)C(=O)NC2CCCCC2)OCCCC[C@H](C)Oc2ccc(NS(=O)(=O)c3ccc(Cl)cc3)cc2C1=O` was tested, and the growth inhibition call was “inactive”.
For `Cc1ccc(S(=O)(=O)N(C)C[C@H]2Oc3cc(C#Cc4ccncc4)ccc3S(=O)(=O)N([C@H](C)CO)C[C@H]2C)cc1`, the growth inhibition call was “inactive”.
With `C[C@H](CO)N1C[C@H](C)[C@H](CN(C)Cc2ccc(C(=O)O)cc2)Oc2c(NC(=O)Nc3ccc(C(F)(F)F)cc3)cccc2C1=O` the growth inhibition call was “inactive”.
For `C[C@@H]1CN([C@H](C)CO)C(=O)CCCn2cc(nn2)CO[C@@H]1CN(C)S(=O)(=O)c1cccc(C#N)c1`, the growth inhibition call was “inactive”.
For `Cc1ccc(S(=O)(=O)Nc2ccc3c(c2)CC(=O)N([C@@H](C)CO)C[C@H](C)[C@H](CN(C)Cc2ccc(C(F)(F)F)cc2)O3)cc1`, the growth inhibition call was “inactive”.
With `O=C(C[C@@H]1CC[C@H]2[C@@H](COC[C@@H](O)CN2S(=O)(=O)c2ccccc2)O1)N[C@@H]1CCN(Cc2ccccc2)C1` the growth inhibition call was “inactive”.
With `CO[C@@H]1CN(C)C(=O)c2ccc(NS(=O)(=O)c3ccccc3)cc2OC[C@@H](C)N(C(=O)NC(C)C)C[C@H]1C` the growth inhibition call was “inactive”.
For `C[C@H]1CCCCO[C@@H](CN(C)CC2CCCCC2)[C@@H](C)CN([C@@H](C)CO)C(=O)c2cc(NC(=O)Nc3cccc4ccccc34)ccc2O1`, the growth inhibition call was “inactive”.
In the case of `N#Cc1c(Oc2ccc(F)c(NC(=O)Cc3cccc(C(F)(F)F)c3)c2)ccc2nc(NC(=O)C3CC3)sc12`, the growth inhibition call is reported as “inactive”.
